# PubChem BioAssay AID686979 (National Center for Advancing Translational Sciences (NCATS), 2013)
# Where “and” joins values, the source holds several entries; their conditions need not be identical. Equal entries are not always repeated. The whole screen tested about 420,000 compounds, of which about 50,000 (12%) were called active. The inconclusive results got no clear call from the source; some entries with a clear call stand among them for comparison. Calls follow the shape of the dose curve; as a rule, active = well fitted inhibition curve with a large enough effect; inconclusive = small, poorly fitted or top-dose-only effect; inactive = flat fitted curve, though single readings scatter. Potencies of inconclusive entries are left out as doubtful fits. Where a structure was tested more than once in an assay, its records may differ in their call.
# Experiment: qHTS for Inhibitors of human tyrosyl-DNA phosphodiesterase 1 (TDP1): qHTS in cells in presence of CPT; also: nearly all actives have a fitted effect of over 55% in size
# Conditions: chicken DT40 Tdp1-/-;hTDP1 cells + 20 nM CPT, ATP luminescence, 48 h; activity change, negative = growth inhibition: at 46.2 µM (top of the series) unless noted
# Outline: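 Chicken DT40 Tdp1-/- cells complemented with human TDP1, 400 cells/well, exposed to compounds plus 20 nM camptothecin for at least 48 h at 37 C; viability read as ATP content by CellTiter-Glo luminescence.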
# % is scaled to controls: 0 for no effect and ±100 for the full control effect; potency is read from the fitted curve at half-maximal effect; tags tell the direction and shape of the fitted curve.
Structure (SMILES),Potency,"activity change, negative = growth inhibition"
O=C(NCCN1CCC2(CC1)C(=O)NCN2c1cccc(F)c1)c1ccc2ccccc2c1,"inconclusive [inhibitor, single point]",
C[C@@H]1CNC(=O)c2c(C(=O)Nc3cccc(Cl)c3)ncn21,active: 20.6 µM,
Cc1ccsc1C(=O)C1CCCN(Cc2ccccc2O)C1 (stereo not given),inactive,
Cn1c[n+](C)cc1C(O)c1ccccc1 (stereo not given),inactive,
CCCCn1nnnc1C(C1CC1)N1CCC2(CC1)C(=O)NCN2c1ccccc1 (stereo not given),"inconclusive [inhibitor, single point]",
C[C@]12CC[C@H](O)CC1=CCC1C2CC[C@]2(C)C(=O)CC[C@@H]12 (stereo not given in full),active: 29.9 µM,
COc1ccc(NC(=O)C2(C)Cc3c(-c4ccc(N(C)C)cc4)ccnc3O2)cc1OC (stereo not given),"inconclusive [inhibitor, single point]",
COc1ccc(OCC(=O)N2CCN(C(C)C)CC2)cc1,inactive,
Cc1cccc2nc(-c3ccccc3)c(-c3ccc(CN4CCC(n5c(=O)[nH]c6ccccc65)CC4)cc3)nc12,active: 9.2 µM,
CC1(C)C(O)CC(O)[C@]2(C)C1CC(O)[C@]1(C)C2CC[C@@]2(C)C(c3ccoc3)OC(=O)C3O[C@]312 (stereo not given in full),"inconclusive [inhibitor, single point]",
COc1ccccc1CNCCc1ccc(F)cc1,"inconclusive [inhibitor, single point]",
CCCCOP(=O)(c1ccc(N(C)C)cc1)C(Nc1ccccc1)c1ccccc1 (stereo not given),active: 14.6 µM,
Nc1nc2ccc(Cl)cc2c2nc(-c3ccco3)nn12,active: 6.31 µM,
CCCCn1c(O)c(C(C)=NCc2ccc3c(c2)OCO3)c(=O)[nH]c1=O,"inconclusive [inhibitor, single point]",
CC(c1nc2ccccc2c(=O)[nH]1)N(C)CCOc1ccc(Cl)cc1 (stereo not given),active: 20.6 µM,
CC(C)(Cc1c[nH]c2ccc(Cl)cc12)NCCOc1ccccc1OCC1CC1,active: 21.1 µM and active: 6.51 µM,
CNC(C)Cc1ccccc1Sc1ccc(O)cc1 (stereo not given),"inconclusive [inhibitor, single point]",
N#CC1c2ccccc2-n2nncc2CN1C(=O)CCc1ccccc1 (stereo not given),active: 14.6 µM,
CC12CCC3C(CCC4CC(=O)C(C(O)C(F)(F)F)CC43C)C1CCC2O (stereo not given),"inconclusive [inhibitor, single point]",
CN1CC(C#N)C2(O)c3ccccc3CCC2C1 (stereo not given),inactive,
O=c1[nH]c2ccccc2n1C1CCN(C(c2cccc3ccccc23)c2nnnn2-c2ccc3c(c2)OCCO3)CC1 (stereo not given),active: 4.61 µM,
COC(=O)C1=C(c2cccc(C#N)c2)C[C@@H]2CC[C@H]1N2C(=O)NCC1CC1,inactive,
O=c1[nH]c2ccccc2n1C1CCN(Cc2ccc(-c3[nH]c4cc5ncnc5cc4nc3-c3ccccc3)cc2)CC1,active: 2.31 µM,

Structure (SMILES),Potency,"activity change, negative = growth inhibition"
CSc1ccccc1C(=O)C1CCCN(Cc2cccc(C)n2)C1 (stereo not given),"inconclusive [inhibitor, single point]",
C#CC1(O)CCC2C3CCC4=C/C(=N/OCC(=O)NCC(=O)NC(C(=O)O)C(C)C)CC[C@]4(C)C3CC[C@@]21C (stereo not given in full),inactive,
COc1cccc(-c2nn3c(=O)cc(CN4CCN(C(=O)COc5ccccc5C)CC4)nc3s2)c1,"inconclusive [inhibitor, single point]",
Cc1cc(C)c(S(=O)(=O)N2Cc3ccccc3-n3nncc3C2)c(C)c1,active: 5.17 µM,
O=C(NCC1=C(c2cccc3ccccc23)C[C@@H]2CC[C@H]1N2Cc1ccco1)c1cccnc1,"inconclusive [inhibitor, single point]",
C[C@@H]1CN([C@H](C)CO)C(=O)c2c(c3ccccc3n2C)-c2ccccc2CO[C@H]1CN(C)C(=O)Cc1ccccc1,active: 23.1 µM,
Fc1ccc(CCNCc2ccc(Cl)c(Cl)c2)cc1,"inconclusive [inhibitor, single point]",
COc1cc2c3cc1Oc1c(OC)c(OC)cc4c1[C@@H](Cc1ccc(O)c(c1)Oc1ccc(cc1)C[C@@H]3N(C)CC2)N(C)CC4,"inconclusive [inhibitor, full curve, poor fit]",
CCN(CC)C(=O)c1ccc(NC(=O)COc2ccc([N+](=O)[O-])cc2Cl)cc1,"inconclusive [inhibitor, partial curve, poor fit]",
Cc1ccc(C[N+](C)(C)C)o1,,inconclusive: -34.2% [inhibitor]
O=c1[nH]c(=O)n(Cc2ccccc2)c(O)c1/C=N/Nc1c(F)c(F)c(F)c(F)c1F,inactive,
O=c1c2ccccc2nc(-c2ccc(Cl)cc2Cl)n1-c1nccs1,"inconclusive [inhibitor, single point]",
CNCC(O)c1ccc(OC(=O)C(C)(C)C)c(OC(=O)C(C)(C)C)c1 (stereo not given),inactive and active: 9.03 µM,
Cc1ccc(-c2nn3c(C)nnc3c3ccccc23)cc1S(=O)(=O)NCCO,"inconclusive [inhibitor, single point]",
BrCC(Br)C1CCC(Br)C(Br)C1 (stereo not given),"inconclusive [inhibitor, single point]",
O=P(NC1CCCCC1)(Oc1ccccc1)Oc1ccccc1,inactive,
COc1ccc(-c2cc(C(=O)N3CCN(c4ccccc4OC)CC3)c3cc(C(C)C)ccc3n2)cc1,active: 23.1 µM,
COC(=O)C1C2c3ccccc3C(c3ccccc32)C1C(=O)OC (stereo not given),inactive,
CCCC[n+]1cc(=N)o[n-]1,inactive,
CCN(CC)c1ccc(N=Cc2c(O)n(-c3ccccc3)c(=O)[nH]c2=O)cc1,"inconclusive [inhibitor, single point]",
CC[n+]1c(/C=C/C=C/c2ccc(N(C)C)cc2)sc2ccccc21,active: 0.0092 µM,
C=C1C2[C@H](OC(C)=O)[C@@H]3CC(=O)[C@]4(C)OC[C@@]3(C)[C@@]4(O)[C@@H](OC(C)=O)[C@H](OC(C)=O)[C@@]2(COC(=O)c2ccccc2)[C@@H](OC(C)=O)C[C@@H]1O (stereo not given in full),"inconclusive [inhibitor, single point]",
